# Data published in the supplement of paper PMC3334620.
# Over roughly 33,000 sequences, “E-score (-0.5 to 0.5)” has its median near -0.01; the highest 2% begin near 0.26. Some of the results follow.
# Target: Ste12 (UniProt P13574)
# Test: PBM E-score (8-mer binding enrichment) (E-score (-0.5 to 0.5)); higher = stronger / more preferred TF binding; most listed sequences are background and not binding sites
# Settings: protein concentration: 200 nM; construct: GST-DNA-binding domain
# Outline: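 E-scores (a modified Wilcoxon-Mann-Whitney statistic) were assigned by the Universal PBM Analysis Suite to every ungapped eight-base word pooled with its reverse complement. The input came from universal all-10-mer Agilent arrays made double-stranded by primer extension and probed with GST-tagged yeast transcription factors at about 100-200 nM. Fluorescent anti-GST detected bound protein, and masliner normalised the scans.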
row,Sequence,PBM E-score
1,CAGTCCTC,-0.0957
2,ATCCCGTC,0.0461
3,ACGGTACA,0.0958
4,AGTAAATG,0.114
5,AACGATCC,-0.0207
6,ACTTTGAG,0.0952
7,CAAGCCGC,-0.0997
8,ATTGCATG,0.109
9,GCTTTGTA,0.114
10,CCCTGCCC,0.0686
11,AGATGGCG,0.11
12,AGGTGTGG,-0.0537
13,ACCTGTGA,0.131
14,GTCTAGGA,-0.0366
15,GTATTTTA,0.166
16,GGGAGCAC,-0.254
17,CACCATAA,0.136
18,ATCATTCG,0.142
19,TACCAGCA,-0.0129
20,GAAGTTAC,0.0932
21,CCAATACA,0.0294
22,GATTGTAC,-0.172
23,AGTAGCAG,0.07
24,ATCGCGAG,0.107
25,CAAGCCCG,-0.104

row,Sequence,PBM E-score
1,ACTTATAA,0.175
2,TCTGAGAA,0.0747
3,ATAAGTCA,0.197
4,ATTTGCTA,0.0107
5,AAAATTTT,0.311
6,AACCGTAG,-0.156
7,GTAGAAAC,0.0517
8,AAGGTGAA,0.149
9,AGTCAAGA,-0.047
10,AAAATCAC,0.222
11,CCCGCGAG,0.119
12,CGAACCAA,0.0313
13,AAAGTTCG,-0.244
14,GGACTTAA,-0.0538
15,AGTCCTAT,-0.226
16,CACACTGC,-0.201
17,CAGTTCCA,0.0555
18,CGAAGCAA,-0.0326
19,ACCCAGTC,-0.0677
20,CCTCAACA,0.0274
21,CGCTCAAG,-0.188
22,TCCCAACA,0.00266
23,CATGTTCG,0.0721
24,GGGATGGA,-0.0192
25,TAACGTGA,-0.0707

row,Sequence,PBM E-score
1,CCGAAAGC,-0.194
2,GCAGACTA,-0.162
3,AAGTGGCT,-0.0554
4,CGTCCCTC,-0.0466
5,CCGTTTCC,0.139
6,AGCCACTC,-0.103
7,GGCATAGA,0.0282
8,GATGTTAC,0.0919
9,AAGTAGTC,0.0527
10,CAAGGCCG,-0.134
11,TCAGAGGA,-0.0615
12,CGCTGCAG,-0.072
13,ATCCCAGC,-0.139
14,CTTACCTC,-0.115
15,ACGCTGCG,-0.0283
16,CGAAAAAA,0.308
17,CCTTTCCG,0.115
18,AACTCAGA,0.0741
19,AAAATGCA,0.00439
20,CACAGTGC,-0.188
21,CTCCCGAA,-0.0605
22,ATCCACTA,-0.0722
23,CTTCACGC,-0.0578
24,AGCAGTAT,0.0947
25,GGGGAGAC,-0.0846

row,Sequence,PBM E-score
1,AACGTATT,0.0441
2,CAGCTAAA,-0.0448
3,CAACATGA,0.0787
4,GCGTTAAA,0.0836
5,AAACCAAT,0.225
6,GGAAACCC,-0.0121
7,GCCTTTCC,-0.21
8,GCATATCA,0.0522
9,CCACTGGA,-0.225
10,ATCCTGAG,0.0586
11,CTTAAAGC,-0.0197
12,CCTATCCC,0.116
13,AATTACAG,0.201
14,ATGTGCCA,-0.0367
15,AAATTTTA,0.132
16,GCGCCACA,-0.00969
17,AGACGCCC,0.0625
18,CCAAAATC,0.183
19,CCGATTGA,-0.0246
20,CCATGGCG,-0.0357
21,AACGTGAT,0.0239
22,CCTTCCGC,-0.0635
23,GAATGACC,0.101
24,ACGCCTAC,-0.26
25,AATAGTTA,0.143

row,Sequence,PBM E-score
1,AGAGCCCG,-0.0751
2,ATTAACAA,0.216
3,GAACACCA,-0.0568
4,CCTCCAAG,-0.115
5,ACCGTTAT,0.0594
6,ACTCATCA,0.0605
7,AGGCACCA,0.0748
8,AATCGATA,-0.0141
9,TCGTTAAA,0.181
10,CACATCTC,0.00481
11,TCATCAAA,0.236
12,TCGATAGA,-0.246
13,GAGCAATA,0.065
14,AGCACTTC,-0.149
15,AAGTGGGG,-0.0336
16,CATTAGTA,0.071
17,ACCCATCC,0.00204
18,CAAAACGA,0.272
19,ATGAGATC,-0.14
20,CAAATTAA,0.203
21,CACGACGA,-0.118
22,ATCCGTTC,0.0693
23,AATACAAT,0.0948
24,AACGGTGA,-0.122
25,AAGTGGAG,0.0169

row,Sequence,PBM E-score
1,CATTCTGC,0.0299
2,ATCACCTA,-0.089
3,TAAACAGA,0.0943
4,CTCAAGCA,-0.0187
5,AATCATGC,-0.0691
6,ACACATGC,-0.14
7,GAGGATCC,-0.0539
8,GTCTCGTA,-0.14
9,CAATTCAG,-0.031
10,GTCTAAAC,0.221
11,ATCAGTAC,-0.131
12,CAGACCCG,0.0234
13,ACGGGCAA,-0.0669
14,CTACTATC,0.111
15,AAGAACGT,0.0398
16,CCCCATGC,-0.0446
17,TTCGTCAA,0.0624
18,CCAGTCCC,-0.107
19,TGCCTCCA,-0.237
20,CAGCGTGC,-0.0326
21,ATTTTCAC,0.23
22,AGGTAAGA,0.0479
23,CTAGCGAG,-0.345
24,ATCAACAT,0.0333
25,AACCAATG,0.136

row,Sequence,PBM E-score
1,GCGTATGA,0.0739
2,AATTATAG,0.179
3,AAGCCAAC,0.0721
4,ACAGGAAT,-0.09
5,GCGGCTAA,-0.0126
6,GACCAGGA,-0.183
7,TGGGTGAA,0.184
8,CGAATATC,0.00063
9,CACCTGAG,0.0638
10,AGGATAAG,-0.0783
11,TTCATCAA,0.176
12,TATTCTAA,0.196
13,TAGCATGA,-0.0841
14,ATTCAATA,0.155
15,CGATCGAC,0.0634
16,ACTGTCAG,0.0465
17,GTTAGGCA,-0.306
18,CGCAATCC,0.155
19,AATTACTC,0.11
20,GAGGTCTA,0.0072
21,ACCGTGTG,-0.064
22,ACTCCTTC,-0.154
